# Reference: PMC12820563
# This is one part of the list. The list includes weakly bound sequences.
# Molecular target: T1, MBP-FoxP3dN (UniProt Q99JB6)
# T1 sequence: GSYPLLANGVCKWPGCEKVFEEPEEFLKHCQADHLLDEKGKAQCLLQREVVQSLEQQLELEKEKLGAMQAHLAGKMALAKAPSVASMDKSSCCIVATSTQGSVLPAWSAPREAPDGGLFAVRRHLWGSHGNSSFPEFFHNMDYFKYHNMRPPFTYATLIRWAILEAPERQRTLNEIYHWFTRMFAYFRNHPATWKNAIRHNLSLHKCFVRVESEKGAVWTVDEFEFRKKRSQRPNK
# Test: PD-seq (MBP pull-down with sequencing)
# Conditions: 20 mM Tris-HCl pH 7.5, 100 mM NaCl, 1.5 mM MgCl2, 0.4 uM protein, 0.1 uM dsDNA library, 30 min, room temperature, amylose pull-down; high values mean tight binding; double strand, one strand shown
row,Sequence,binding signal (RPM ratio (pull-down/input))
1,GATGATTGTTCTCCCAGCTGATGAATTCCATTGCTCGAGTAAACAAATTTTCCTAATCTTTCTGTTCAAGCGCCATCTAC,0.618
2,GATGATTGTTCTCCCAGCTGATGAATTCAATTGATCGAGTAAACAAATTTTCCTAATCTTTCTGTTCAAGCGCCATCTAC,1.07
3,GATGATTGTTCTCCCAGCTGATGAATTGTTTCCCTCGAGTAAACAAATTTTCCTAATCTTTCTGTTCAAGCGCCATCTAC,1.51
4,GATGATTGTTCTCCCAGCTGATGAATTGGTACATTCGAGTAAACAAATTTTCCTAATCTTTCTGTTCAAGCGCCATCTAC,0.679
5,GATGATTGTTCTCCCAGCTGATGAATTAAATCGTTCGAGTAAACAAATTTTCCTAATCTTTCTGTTCAAGCGCCATCTAC,0.372
6,GATGATTGTTCTCCCAGCTGATGAATTCCATGGTTCGAGTAAACAAATTTTCCTAATCTTTCTGTTCAAGCGCCATCTAC,0.513
7,GATGATTGTTCTCCCAGCTGATGAATTTACTGCATCGAGTAAACAAATTTTCCTAATCTTTCTGTTCAAGCGCCATCTAC,1.26
8,GATGATTGTTCTCCCAGCTGATGAATTCTACTGGTCGAGTAAACAAATTTTCCTAATCTTTCTGTTCAAGCGCCATCTAC,0.328
9,GATGATTGTTCTCCCAGCTGATGAATTCCAATAGTCGAGTAAACAAATTTTCCTAATCTTTCTGTTCAAGCGCCATCTAC,0.404
10,GATGATTGTTCTCCCAGCTGATGAATTATGTCCTTCGAGTAAACAAATTTTCCTAATCTTTCTGTTCAAGCGCCATCTAC,1.41
11,GATGATTGTTCTCCCAGCTGATGAATTAGTACCGTCGAGTAAACAAATTTTCCTAATCTTTCTGTTCAAGCGCCATCTAC,0.654
12,GATGATTGTTCTCCCAGCTGATGAATTAACATAATCGAGTAAACAAATTTTCCTAATCTTTCTGTTCAAGCGCCATCTAC,0.409
13,GATGATTGTTCTCCCAGCTGATGAATTTGTACGTTCGAGTAAACAAATTTTCCTAATCTTTCTGTTCAAGCGCCATCTAC,2.29
14,GATGATTGTTCTCCCAGCTGATGAATTACTGGCATCGAGTAAACAAATTTTCCTAATCTTTCTGTTCAAGCGCCATCTAC,0.776
15,GATGATTGTTCTCCCAGCTGATGAATTTCTCCCCTCGAGTAAACAAATTTTCCTAATCTTTCTGTTCAAGCGCCATCTAC,0.246
16,GATGATTGTTCTCCCAGCTGATGAATTTGGACTCTCGAGTAAACAAATTTTCCTAATCTTTCTGTTCAAGCGCCATCTAC,1.69

row,Sequence,binding signal (RPM ratio (pull-down/input))
1,GATGATTGTTCTCCCAGCTGATGAATTCTCTACCTCGAGTAAACAAATTTTCCTAATCTTTCTGTTCAAGCGCCATCTAC,0.185
2,GATGATTGTTCTCCCAGCTGATGAATTAAGGGGGTCGAGTAAACAAATTTTCCTAATCTTTCTGTTCAAGCGCCATCTAC,0.459
3,GATGATTGTTCTCCCAGCTGATGAATTAGGGTAATCGAGTAAACAAATTTTCCTAATCTTTCTGTTCAAGCGCCATCTAC,0.536
4,GATGATTGTTCTCCCAGCTGATGAATTTAGTTTGTCGAGTAAACAAATTTTCCTAATCTTTCTGTTCAAGCGCCATCTAC,5.36
5,GATGATTGTTCTCCCAGCTGATGAATTGATATTATCGAGTAAACAAATTTTCCTAATCTTTCTGTTCAAGCGCCATCTAC,1.09
6,GATGATTGTTCTCCCAGCTGATGAATTTAATGAGTCGAGTAAACAAATTTTCCTAATCTTTCTGTTCAAGCGCCATCTAC,0.567
7,GATGATTGTTCTCCCAGCTGATGAATTAGCCCCGTCGAGTAAACAAATTTTCCTAATCTTTCTGTTCAAGCGCCATCTAC,0.22
8,GATGATTGTTCTCCCAGCTGATGAATTTTACCCATCGAGTAAACAAATTTTCCTAATCTTTCTGTTCAAGCGCCATCTAC,0.29
9,GATGATTGTTCTCCCAGCTGATGAATTCCGGGATTCGAGTAAACAAATTTTCCTAATCTTTCTGTTCAAGCGCCATCTAC,0.303
10,GATGATTGTTCTCCCAGCTGATGAATTCACTACTTCGAGTAAACAAATTTTCCTAATCTTTCTGTTCAAGCGCCATCTAC,0.368
11,GATGATTGTTCTCCCAGCTGATGAATTTGTCCTTTCGAGTAAACAAATTTTCCTAATCTTTCTGTTCAAGCGCCATCTAC,2.94
12,GATGATTGTTCTCCCAGCTGATGAATTATTATTCTCGAGTAAACAAATTTTCCTAATCTTTCTGTTCAAGCGCCATCTAC,1.6
13,GATGATTGTTCTCCCAGCTGATGAATTCAGACTGTCGAGTAAACAAATTTTCCTAATCTTTCTGTTCAAGCGCCATCTAC,0.548
14,GATGATTGTTCTCCCAGCTGATGAATTGCATAGGTCGAGTAAACAAATTTTCCTAATCTTTCTGTTCAAGCGCCATCTAC,0.683
15,GATGATTGTTCTCCCAGCTGATGAATTTATGTCTTCGAGTAAACAAATTTTCCTAATCTTTCTGTTCAAGCGCCATCTAC,2.54
